In the RNAGym collection of RNA variant scans (doi:10.1093/nar/gkz1192):
The source gives no read counts; variants with many changes may rest on few reads.

B1: CPEB3 Ribozyme (parent)
chain: UAACAGGGGGCCACAGCAGAAGCGUUCACGUCGCAGCCCCUGUCAGAUUCUGGUGAAUCUGCGAAUUCUGCUGUAUAUCUC

Variants of: B1
Assay: self-cleavage, relative activity (ratio to wild type); higher = more cleavage; in vitro, sequencing
Procedure, shortened: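 Relative activity was defined as the cleaved/total read fraction for a variant divided by the same fraction for the unmutated ribozyme. CPEB3 self-cleaving ribozyme libraries were made by rounds of error-prone PCR, barcoded, and transcribed in vitro with T7 RNA polymerase for 5 hours at 37°C, and cleavage ran through transcription plus a 15 min DNase I step before EDTA. Illumina sequencing of template-switched reverse transcripts gave the reads, and DNA sequencing mapped the barcodes. Averages come from three batches, using variants with at least 5 reads.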
Work on A15U G42A G61C U66C U74A yielded a self-cleavage of 0.12. For A15U C32U A35G C44U U54C U72C U80C, the self-cleavage was 0.29. Variant G16A U31C U51C A64G has a self-cleavage of 0.09. Work on A15U U26C A56G A64U yielded a self-cleavage of 0.41. With A15U C29A A35G U54C the self-cleavage was 0.97. A15U A21G A28G U49C A57G gave a self-cleavage of 0.07. For G16A U72A U78C U80A, the self-cleavage was 0.09. In the case of A15U U25A C29U U69C, the self-cleavage is reported as 0.06. In the case of A15U U26C A45G A47G U67C, the self-cleavage is reported as 0.19. With A15U U31C G42A A75C the self-cleavage was 0.24. With G16A A28G C34G A47G U67C A77U the self-cleavage was 0.02. G16A U51C A65G U78A gave a self-cleavage of 0.12. A15U U26C A45G U48C G53A gave a self-cleavage of 0.12. For A15U U31C A57G U80C, the self-cleavage was 0.39. In the case of A15U A28G U31C G46C U69A U80C, the self-cleavage is reported as 0.04. For A15U A47G U67C, the self-cleavage was 0.16. A15U A28G A64U gave a self-cleavage of 0.25. In the case of A15U U31C C40U U41C U78C C81U, the self-cleavage is reported as 0.62. In the case of A15U C23A C62A G73C, the self-cleavage is reported as 0.23. With G16A A18U G19C U25C U49C U66C U80A the self-cleavage was 0.05. In the case of G16A U31C G70C A75G, the self-cleavage is reported as 0.1. For A15U A64U A75C U76A, the self-cleavage was 0.36. For A15U U25C U26C U51C A65G U72C, the self-cleavage was 0.07. With A15U U43A C71G U72A the self-cleavage was 0.25. In the case of A15U U51A U54C A56G A65G, the self-cleavage is reported as 0.27. A15U A35G A56G U60C showed a self-cleavage of 0.97. With A15U A56G U69C the self-cleavage was 0.22. With A15U A21G U31C A47U U60G U74C the self-cleavage was 0. A15U A21C A35G U48C U54C U66C U76C gave a self-cleavage of 0. Work on A15U A77U U80A yielded a self-cleavage of 0.87. With A15U A56U G63A the self-cleavage was 0.3. With A15U C23G A35U C38U U48C A57G C68U the self-cleavage was 0.05. G16A U41G U54C A56U U76C showed a self-cleavage of 0.1. A15U C40A U48C U76A gave a self-cleavage of 0.2. In the case of A15U A47U U54C, the self-cleavage is reported as 0.15. A15U U48C U74C gave a self-cleavage of 0.68. For A15U C32U A35U, the self-cleavage was 0.18. In the case of A15U U25C A28G A57U U58A U72G C79U, the self-cleavage is reported as 0.03. Work on A15U A20U C39U yielded a self-cleavage of 0.2. A15U U26C A28G U49A gave a self-cleavage of 0.15. Work on A15U A21G A64G U67C U76A yielded a self-cleavage of 0.19. With A15U U26A A45U U76C C79G the self-cleavage was 0.44. G16A A35U A45G C62A U67C U69C showed a self-cleavage of 0.07. In the case of A15U U43C U74A, the self-cleavage is reported as 0.54. G16A U31C U41C A65G U72A showed a self-cleavage of 0.1. Variant A15U A21G U41C U72A has a self-cleavage of 0.16. In the case of A15U U31C A35G U60C, the self-cleavage is reported as 0.5. In the case of A15U A20U U31C U43A U54C U60A, the self-cleavage is reported as 0.12. A15U C38A A56C C59A gave a self-cleavage of 0.14. For A15U A45G U51A C59A U72C C81G, the self-cleavage was 0.26. A15U U31C U66A gave a self-cleavage of 0.09. For A15U C62U U74C A75U, the self-cleavage was 0.18. Work on G16A C29U U49A U54C G61A yielded a self-cleavage of 0.06. A15U U41A A64G gave a self-cleavage of 0.14. A15U U60C U78A gave a self-cleavage of 0.17. In the case of A15U A56U U60A A75U, the self-cleavage is reported as 0.13. Work on A15U A45G A65U A77G yielded a self-cleavage of 0.11. A15U A45G A75U showed a self-cleavage of 0.78. In the case of A15U U25C A64G, the self-cleavage is reported as 0.19. With A15U A45G U49C U78C the self-cleavage was 0.15. For A15U U26C C29U U43A A56G A57G, the self-cleavage was 0.07. A15U A64G U67G C81U gave a self-cleavage of 0.23. Work on A15U C27G A35U yielded a self-cleavage of 0.07. In the case of A15U C38A U60A U69A, the self-cleavage is reported as 0.15. Variant G16A U26C C34U A35G U60A A64G U69C has a self-cleavage of 0.05. G16A U25C A45U U80C showed a self-cleavage of 0.24. In the case of A15U G33A U69C U76A, the self-cleavage is reported as 0.15. Work on G16A C27U G33A A56G U78C yielded a self-cleavage of 0.32. For A15U A28U C68U, the self-cleavage was 0.26. Variant G16A A21G A45G U54C C62U U67C has a self-cleavage of 0.13. With G16A U43A U72A the self-cleavage was 0.36. For A15U A35U U74A, the self-cleavage was 0.96. In the case of A15U C29A U54G U58A U78C, the self-cleavage is reported as 0.08. Variant A15U A35G A45U has a self-cleavage of 1.22. Variant A15U A28U U51G U76A has a self-cleavage of 0.2. In the case of A15U A28G U67C, the self-cleavage is reported as 0.1. With A15U A47C U54C the self-cleavage was 0.09. G16A U41A U66C showed a self-cleavage of 0.11. In the case of A15U A28U G46U, the self-cleavage is reported as 0.14. Work on A15U A57G U78C yielded a self-cleavage of 0.63. With A15U U25A A28G A47G U54G U66C the self-cleavage was 0.07. With G16A U25C U54C the self-cleavage was 0.08. With G16A U41G U54C U76C the self-cleavage was 0.15. Variant A15U G22A U31A C32A has a self-cleavage of 0.54. Work on A15U A75U A77G yielded a self-cleavage of 1.09. Work on A15U G16A A20U U51C A56G G70A yielded a self-cleavage of 0.04. For A15U U58A A65G, the self-cleavage was 0.17. A15U U41C U54C A65G U67C U74C U78C showed a self-cleavage of 0.2. In the case of A15U G70C U76C, the self-cleavage is reported as 0.12. For A15U A45G A56U, the self-cleavage was 0.18. With A15U A57G A65G the self-cleavage was 0.29. For G16A A21G U43C U51G, the self-cleavage was 0.07. A15U U49A A64U U69A showed a self-cleavage of 0.08. Variant A15U U25A U54G A57G U80C has a self-cleavage of 0.38. In the case of G16A A20U U31A U67A, the self-cleavage is reported as 0.27. A15U A35U U51A U54A U60C U72C showed a self-cleavage of 0.21. For A15U C27U U43A A56G U74G, the self-cleavage was 0.04. Work on A15U U25C U41A A45U U54C yielded a self-cleavage of 0.13. In the case of A15U U43C A56U A65G U74C A77G, the self-cleavage is reported as 0.27. Work on A15U G24A U67C yielded a self-cleavage of 0.1. In the case of A15U U25C C27U, the self-cleavage is reported as 0.21. Variant G16A G42A U72G has a self-cleavage of 0.11. In the case of A15U A21U U26C G42A G55U U58C A65G, the self-cleavage is reported as 0.05. A15U A28U U43C U54G U72A gave a self-cleavage of 0.11. Variant A15U A47G C50G A75G has a self-cleavage of 0.23. Variant A15U U26C A77U has a self-cleavage of 0.22. A15U U26C U51C U67C U78C gave a self-cleavage of 0.08. Variant A15U A75U U80A has a self-cleavage of 1.22. With A15U A35U U54C U69A U72C the self-cleavage was 0.11. Work on A15U A21G G33A A35G U58A U69A yielded a self-cleavage of 0.08. For A15U A47G A75U U80C, the self-cleavage was 0.89. In the case of G16C A18G G52A, the self-cleavage is reported as 0.36. Variant A15U U48C A56G A57G has a self-cleavage of 0.27. With A15U U25C A45U G53C U60G the self-cleavage was 0.18. G16A C38U G42A A47U U51G showed a self-cleavage of 0.16. A15U U31A U43C A56U gave a self-cleavage of 0.12. A15U G30A C32U U41G G46U A65G U69C gave a self-cleavage of 0.04. A15U A20U U25C A45G gave a self-cleavage of 0.05. A15U U26C U60G U72A showed a self-cleavage of 0.26. For A15U U72A U76C, the self-cleavage was 0.62. With G16A U26C U51C the self-cleavage was 0.4. A15U U48C U60C A64G gave a self-cleavage of 0.08. For A15U A21G G24A U25C, the self-cleavage was 0.16. With A15U U25C U43C the self-cleavage was 0.23. For A15U U26C C29U A35C U60C G63A A77G, the self-cleavage was 0.06. Work on A15U G52C U60A yielded a self-cleavage of 0.21. For A15U U31C C44A, the self-cleavage was 0.12. Work on A15U C23U U26C U80A yielded a self-cleavage of 0.27. For A15U A28G C40A U41C U49C, the self-cleavage was 0.08. For A15U U31C A35U, the self-cleavage was 0.15. Work on G16A U69A U76G yielded a self-cleavage of 0.19. G16A U26A U58C U60A showed a self-cleavage of 0.11. Variant A15U A21C U54C U60C A64U has a self-cleavage of 0.19. A15U U25A U41C U80C gave a self-cleavage of 0.23. Work on A15U U31C U43C A47U U69A yielded a self-cleavage of 0.12. Work on A15U A21U U31C C32A U78A yielded a self-cleavage of 0.09. A15U U51G U69A showed a self-cleavage of 0.34. With A15U A57U U76C A77U the self-cleavage was 0.34. Work on A15U G30U U60A yielded a self-cleavage of 0.13. For A15U G52C U54A A75U, the self-cleavage was 1.04. In the case of G16A U54C A64U, the self-cleavage is reported as 0.12. Variant A15U A47U U48C A57U U58A has a self-cleavage of 0.13. A15U U54A U72C showed a self-cleavage of 1. G16A U31G U54C U60C gave a self-cleavage of 0.14. A15U U26C U41G A65G A77G showed a self-cleavage of 0.07. Variant A15U U48C A56U U58A has a self-cleavage of 0.23. In the case of A15U U74C U80C, the self-cleavage is reported as 1.2. Work on A15U G19A G24C U26C U58G yielded a self-cleavage of 0.2. Work on A15U C29A A45U U58C U66C U74C yielded a self-cleavage of 0.13. G16A A28C A45G showed a self-cleavage of 0.05. In the case of A15U A56G A65G U80C, the self-cleavage is reported as 0.22. Variant G16A U54C G61A has a self-cleavage of 0.14. With A15U U51C U60A the self-cleavage was 0.46. Work on A15U U51C A64C yielded a self-cleavage of 0.14. A15U A64G U69A gave a self-cleavage of 0.1. In the case of A15U U25G U31C G70A A77U, the self-cleavage is reported as 0.07. With A15U A64G U66C U76G the self-cleavage was 0.11. In the case of G16A C29U A45G U66C, the self-cleavage is reported as 0.22. For A15U U25C G30A A45G U67A, the self-cleavage was 0.1. Work on A15U G24A A57G yielded a self-cleavage of 0.2. Work on A15U A35G G42A yielded a self-cleavage of 0.2. For A15U A35U U49A A56U, the self-cleavage was 0.82. Work on A15U A35G A56G yielded a self-cleavage of 1.3. Work on A15U A28U A56G yielded a self-cleavage of 0.23. Work on A15U A21G U78C yielded a self-cleavage of 0.52. Work on A15U U26G A35G A75G yielded a self-cleavage of 0.38. Work on A15U U69C G70A U78A yielded a self-cleavage of 0.32.
